In paper PMC11558142:
These are yes or no findings as the source states them, for the method shown. Binding seen in cells or lysates may run through a third protein. Some binding calls cover weakened binding; strength is not graded here. For part of these data: Sequences can lack the tags named with a protein. Values belong to the molecule of their own block, whether it stands above or below them.

Protein sequences, listed by entry. Tags and fused reporters are not part of them. Lines headed by an entry give the natural chain unless they say otherwise; changes in a name come on top. Chains listed by the source or under a name are the forms on record and can include a tag or linker. Residues count along the entry.
UniProt P84022: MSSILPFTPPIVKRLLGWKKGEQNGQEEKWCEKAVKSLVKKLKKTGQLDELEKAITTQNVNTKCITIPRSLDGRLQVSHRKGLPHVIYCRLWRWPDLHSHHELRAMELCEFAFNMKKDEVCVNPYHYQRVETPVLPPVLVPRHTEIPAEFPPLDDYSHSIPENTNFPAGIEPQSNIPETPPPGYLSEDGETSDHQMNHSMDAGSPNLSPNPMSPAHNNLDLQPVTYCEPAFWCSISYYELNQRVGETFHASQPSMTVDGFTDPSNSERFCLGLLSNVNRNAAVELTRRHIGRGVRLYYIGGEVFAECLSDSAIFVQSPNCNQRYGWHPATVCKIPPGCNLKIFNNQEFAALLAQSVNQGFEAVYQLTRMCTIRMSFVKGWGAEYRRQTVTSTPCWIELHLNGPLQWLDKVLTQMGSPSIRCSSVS
UniProt P05556: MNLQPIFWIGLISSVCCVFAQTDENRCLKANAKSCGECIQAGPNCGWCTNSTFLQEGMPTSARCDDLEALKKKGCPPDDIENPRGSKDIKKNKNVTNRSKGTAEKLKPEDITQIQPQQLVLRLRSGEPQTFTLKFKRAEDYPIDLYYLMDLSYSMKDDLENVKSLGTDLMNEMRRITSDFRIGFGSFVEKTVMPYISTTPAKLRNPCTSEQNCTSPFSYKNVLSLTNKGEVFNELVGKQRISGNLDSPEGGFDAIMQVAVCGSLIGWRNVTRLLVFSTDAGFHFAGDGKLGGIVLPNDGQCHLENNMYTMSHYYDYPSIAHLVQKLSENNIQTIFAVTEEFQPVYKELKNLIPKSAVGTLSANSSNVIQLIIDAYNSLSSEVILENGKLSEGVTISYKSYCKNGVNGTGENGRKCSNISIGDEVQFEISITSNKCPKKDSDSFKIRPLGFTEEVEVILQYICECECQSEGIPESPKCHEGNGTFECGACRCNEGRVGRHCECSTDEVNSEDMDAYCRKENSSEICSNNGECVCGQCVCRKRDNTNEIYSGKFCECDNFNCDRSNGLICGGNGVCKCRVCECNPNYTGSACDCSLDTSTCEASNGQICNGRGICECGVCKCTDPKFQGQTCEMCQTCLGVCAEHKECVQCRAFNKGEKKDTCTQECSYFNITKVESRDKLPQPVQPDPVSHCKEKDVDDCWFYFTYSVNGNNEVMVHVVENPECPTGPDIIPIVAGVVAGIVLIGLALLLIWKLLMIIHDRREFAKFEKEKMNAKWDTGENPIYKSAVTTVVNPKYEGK
ITGB1 mutant (ITGB1 M) with the deletion of amino acids 130–240 (P05556, form named): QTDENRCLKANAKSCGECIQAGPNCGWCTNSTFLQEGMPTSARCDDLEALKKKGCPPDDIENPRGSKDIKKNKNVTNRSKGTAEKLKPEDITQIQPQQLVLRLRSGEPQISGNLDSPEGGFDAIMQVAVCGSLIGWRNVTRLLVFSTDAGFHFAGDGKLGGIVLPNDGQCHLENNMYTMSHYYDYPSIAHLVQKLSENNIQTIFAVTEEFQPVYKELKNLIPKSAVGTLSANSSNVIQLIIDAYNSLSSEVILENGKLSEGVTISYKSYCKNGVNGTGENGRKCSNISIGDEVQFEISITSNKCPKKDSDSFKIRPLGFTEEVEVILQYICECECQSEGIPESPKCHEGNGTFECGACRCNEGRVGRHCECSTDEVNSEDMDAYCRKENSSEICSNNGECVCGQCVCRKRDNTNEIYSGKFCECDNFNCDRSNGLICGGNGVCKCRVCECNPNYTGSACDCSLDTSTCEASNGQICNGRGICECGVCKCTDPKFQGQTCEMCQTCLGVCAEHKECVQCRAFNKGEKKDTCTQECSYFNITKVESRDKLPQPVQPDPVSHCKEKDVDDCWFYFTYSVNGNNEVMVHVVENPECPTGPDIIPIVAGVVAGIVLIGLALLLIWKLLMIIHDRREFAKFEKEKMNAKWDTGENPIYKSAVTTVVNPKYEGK
UniProt P08648: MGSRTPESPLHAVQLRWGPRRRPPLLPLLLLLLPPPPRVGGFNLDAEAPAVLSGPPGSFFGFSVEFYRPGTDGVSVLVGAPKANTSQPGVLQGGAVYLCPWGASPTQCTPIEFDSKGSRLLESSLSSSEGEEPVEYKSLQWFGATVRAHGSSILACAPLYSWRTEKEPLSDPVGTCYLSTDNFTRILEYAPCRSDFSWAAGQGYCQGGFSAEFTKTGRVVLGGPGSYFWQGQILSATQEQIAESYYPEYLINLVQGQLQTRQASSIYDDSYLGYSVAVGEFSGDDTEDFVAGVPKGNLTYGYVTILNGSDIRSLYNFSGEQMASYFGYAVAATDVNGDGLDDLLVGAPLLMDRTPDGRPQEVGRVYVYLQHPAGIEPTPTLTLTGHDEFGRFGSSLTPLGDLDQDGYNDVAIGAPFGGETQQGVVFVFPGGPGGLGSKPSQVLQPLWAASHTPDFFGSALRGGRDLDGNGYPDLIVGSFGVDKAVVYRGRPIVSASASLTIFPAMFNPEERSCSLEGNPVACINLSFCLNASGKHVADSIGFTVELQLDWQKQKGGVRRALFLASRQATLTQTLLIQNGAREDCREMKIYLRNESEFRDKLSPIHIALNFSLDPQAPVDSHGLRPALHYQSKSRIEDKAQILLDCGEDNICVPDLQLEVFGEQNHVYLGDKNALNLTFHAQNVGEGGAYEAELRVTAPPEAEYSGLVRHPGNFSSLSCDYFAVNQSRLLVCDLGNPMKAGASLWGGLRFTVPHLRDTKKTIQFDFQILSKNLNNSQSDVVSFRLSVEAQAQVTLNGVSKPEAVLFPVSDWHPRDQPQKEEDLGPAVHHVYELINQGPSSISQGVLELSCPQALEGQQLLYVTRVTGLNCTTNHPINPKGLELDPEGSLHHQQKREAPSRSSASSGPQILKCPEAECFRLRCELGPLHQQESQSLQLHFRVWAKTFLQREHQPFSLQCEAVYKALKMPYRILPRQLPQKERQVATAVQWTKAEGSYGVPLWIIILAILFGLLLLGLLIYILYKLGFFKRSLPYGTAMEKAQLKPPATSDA
Flag-ITGA5: residues 42-1049 of P08648
ITGA5 extracellular domain (truncation mutant construct): residues 42-995 of P08648
UniProt Q86U44: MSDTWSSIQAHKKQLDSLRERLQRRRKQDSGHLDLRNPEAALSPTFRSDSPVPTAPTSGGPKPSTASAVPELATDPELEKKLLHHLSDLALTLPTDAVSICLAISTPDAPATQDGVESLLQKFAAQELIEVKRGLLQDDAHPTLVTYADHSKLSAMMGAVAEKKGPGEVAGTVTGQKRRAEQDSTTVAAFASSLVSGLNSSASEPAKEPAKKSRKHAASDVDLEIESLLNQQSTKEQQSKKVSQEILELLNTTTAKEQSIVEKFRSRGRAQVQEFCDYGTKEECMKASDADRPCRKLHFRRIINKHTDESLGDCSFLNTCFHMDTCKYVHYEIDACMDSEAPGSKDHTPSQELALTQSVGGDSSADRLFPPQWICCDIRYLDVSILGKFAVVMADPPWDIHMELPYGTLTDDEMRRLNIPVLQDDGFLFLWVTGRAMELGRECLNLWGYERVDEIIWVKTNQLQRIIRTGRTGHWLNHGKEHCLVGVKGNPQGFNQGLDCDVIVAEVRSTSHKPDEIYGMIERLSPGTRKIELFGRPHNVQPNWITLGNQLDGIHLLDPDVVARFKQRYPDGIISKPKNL

Assays:
Flag-SMAD3 = Flag-SMAD3 (UniProt P84022); test: co-IP; Flag-SMAD3 and HA-METTL3 in MHCC97H cells; with or without TGF-β for 12 h; with galunisertib for 12 h
[1] = biological target: SMAD3 (endogenous) (human (endogenous in MHCC97H)) (UniProt P84022); test: co-IP; endogenous SMAD3 and METTL3 in MHCC97H cells, with or without TGF-β for 12 h
Flag-ITGB1 [2] = biological target: Flag-ITGB1 (UniProt P05556); test: co-IP; IP of ITIH1+ITGB1 in 293T cells with FN1 added in a concentration gradient
Flag-ITGA5 = Flag-ITGA5 (UniProt P08648); test: co-IP; HA-ITIH1 with Flag-ITGA5, Flag-ITGB1, their truncation constructs or the ITGB1 deletion mutant in 293T cells
Flag-ITGB1 [3] = biological target: Flag-ITGB1 (UniProt P05556); test: as above
[4] = biological target: ITGA5 extracellular domain (truncation mutant construct) (UniProt P08648); test: as above
[5] = biological target: ITGB1 extracellular domain (truncation mutant construct) (UniProt P05556); test: as above
[6] = biological target: ITGB1 mutant (ITGB1 M) with the deletion of amino acids 130–240 (UniProt P05556); test: as above
Flag-ITGB1 [7] = biological target: Flag-ITGB1 (UniProt P05556); test: co-IP; IP of ITGB1+FN1 in 293T cells with r-ITIH1 added in a concentration gradient; purified r-ITIH1 as the competitor on ITGB1; only the binder purified

Molecule: HA-METTL3 (from UniProt Q86U44 1-580)
binding (Flag-SMAD3): binds

B1: HA-ITIH1 (protein, UniProt P19827 35-672)
chain: SKSSEKRQAVDTAVDGVFIRSLKVNCKVTSRFAHYVVTSQVVNTANEAREVAFDLEIPKTAFISDFAVTADGNAFIGDIKDKVTAWKQYRKAAISGENAGLVRASGRTMEQFTIHLTVNPQSKVTFQLTYEEVLKRNHMQYEIVIKVKPKQLVHHFEIDVDIFEPQGISKLDAQASFLPKELAAQTIKKSFSGKKGHVLFRPTVSQQQSCPTCSTSLLNGHFKVTYDVSRDKICDLLVANNHFAHFFAPQNLTNMNKNVVFVIDISGSMRGQKVKQTKEALLKILGDMQPGDYFDLVLFGTRVQSWKGSLVQASEANLQAAQDFVRGFSLDEATNLNGGLLRGIEILNQVQESLPELSNHASILIMLTDGDPTEGVTDRSQILKNVRNAIRGRFPLYNLGFGHNVDFNFLEVMSMENNGRAQRIYEDHDATQQLQGFYSQVAKPLLVDVDLQYPQDAVLALTQNHHKQYYEGSEIVVAGRIADNKQSSFKADVQAHGEGQEFSITCLVDEEEMKKLLRERGHMLENHVERLWAYLTIQELLAKRMKVDREERANLSSQALQMSLDYGFVTPLTSMSIRGMADQDGLKPTIDKPSEDSPPLEMLGPRRTFVLSALQPSPTHSSSNTQRLPDRVTGVDTD
binding (Flag-ITGB1 [2]): binds
binding (Flag-ITGA5): binds
binding (Flag-ITGB1 [3]): binds
binding [4]: binds
binding [5]: binds
binding [6]: no binding

The next lines start with the values.

binding [1]: binds
Molecule: METTL3 (endogenous) (from UniProt Q86U44 1-580)

binding (Flag-ITGB1 [7]): binds
B2: ITIH1-Fc recombinant protein (Fc fusion, UniProt P19827 35-672)
chain: B1 chain
